For 13 molecules, Kd, koff and kon results are on record in patent US20220144960A1 (NANJING LEGEND BIOTECH, published 2022).

The term Kd denotes the equilibrium constant for the complex coming apart. What is called koff is the first-order rate constant of dissociation. A word on the kon: it is the rate constant with which the complex forms.

The chains are these.
B1: AS48463 HCAb (camel sdAb, human CD8α hinge, human IgG1 Fc fragment) (Fc fusion)
chain: QVHLMESGGGSVQAGETLRLSCTASGFTFANSDMGWYRQAPGNACELVSIISSHGGTTYYVDSVKGRFTISRHNAENTVYLRMTSLKPEDTALYYCVADPRSNCRGGYCCGYWGPGTQVTVSSTTTPAPRPPTPAPTIASQPLSLRPEACRPAAGGAVHTRGLDFAC[human IgG1 Fc omitted]
notes: HCAb, crude protein from HEK293 medium
B2: AS53574VH4 HCAb (humanized sdAb, human CD8α hinge, human IgG1 Fc fragment) (Fc fusion)
chain: EVQLVESGGGLVQPGGSLRLSCAASGYIYSSNCMGWFRQAPGKGLEWVSRIHTGSGSTYYADSVKGRFTISRDNSKNTLYLQMNSLRAEDTAVYYCAAGRVVLGAVVCTNEYWGQGTLVTVSSTTTPAPRPPTPAPTIASQPLSLRPEACRPAAGGAVHTRGLDFAC[human IgG1 Fc omitted]
notes: as for B1
B3: AS47863 HCAb (camel sdAb, human CD8α hinge, human IgG1 Fc fragment) (Fc fusion)
chain: QVQLEESGGGSVQAGETLRLSCTASGSTFGDSDMGWYRQAPGNACELVSIISSDGRTYYVDSVKGRFTISQDNAVSTVYLQMNSLKPEDTGVYYCAADLRQYCRDGRCCGYWGQGTQVTVSSTTTPAPRPPTPAPTIASQPLSLRPEACRPAAGGAVHTRGLDFAC[human IgG1 Fc omitted]
notes: as for B1
B4: AS53445VH11 HCAb (humanized sdAb, human CD8α hinge, human IgG1 Fc fragment) (Fc fusion)
chain: QVQLVESGGGVVQPGGSLRLSCAASGYIFCMGWFRQAPGKGREGIATIYTGGDSTYYDDSVKGRFTISRDNAKNTLYLQMNSLRPEDTAVYYCAAGGQECYLTNWVSYWGQGTLVTVSSTTTPAPRPPTPAPTIASQPLSLRPEACRPAAGGAVHTRGLDFAC[human IgG1 Fc omitted]
notes: as for B1
B5: AS53445VH4 HCAb (humanized sdAb, human CD8α hinge, human IgG1 Fc fragment) (Fc fusion)
chain: B4 chain with R42L, A72S, P85A
notes: as for B1
B6: AS53445 HCAb (camel sdAb, human CD8α hinge, human IgG1 Fc fragment) (Fc fusion)
chain: B4 chain with V11S, P14A, A23T, G41A, L76V, R84K, V90M, L114Q
notes: as for B1
B7: AS48542 HCAb (camel sdAb, human CD8α hinge, human IgG1 Fc fragment) (Fc fusion)
chain: QMQLVESGGGSVQAGETLRLSCTTSAFTFDGPDMAWYRQAPGNECVLVSIISADGRTYYADSVKGRFTISRDNAKNTVFLNLNSLQPEDTAVYYCALDPRKNCRGGYCCANWGPGTQVTVSSTTTPAPRPPTPAPTIASQPLSLRPEACRPAAGGAVHTRGLDFAC[human IgG1 Fc omitted]
notes: as for B1
B8: AS48542VH5 HCAb (humanized sdAb, human CD8α hinge, human IgG1 Fc fragment) (Fc fusion)
chain: EVQLVESGGGLVQPGGSLRLSCATSAFTFDGPDMAWYRQAPGKGCELVSIISADGRTYYADSVKGRFTISRDNSKNTVYLQMNSLRAEDTAVYYCALDPRKNCRGGYCCANWGQGTLVTVSSTTTPAPRPPTPAPTIASQPLSLRPEACRPAAGGAVHTRGLDFAC[human IgG1 Fc omitted]
notes: as for B1
B9: AS48542VH12 HCAb (humanized sdAb, human CD8α hinge, human IgG1 Fc fragment) (Fc fusion)
chain: B8 chain with S74A, A87P
notes: as for B1
B10: AS47863VH4 HCAb (humanized sdAb, human CD8α hinge, human IgG1 Fc fragment) (Fc fusion)
chain: EVQLVESGGGLVQPGGSLRLSCAASGSTFGDSDMGWYRQAPGKGCELVSIISSDGRTYYVDSVKGRFTISQDNSKNTLYLQMNSLRAEDTAVYYCAADLRQYCRDGRCCGYWGQGTLVTVSSTTTPAPRPPTPAPTIASQPLSLRPEACRPAAGGAVHTRGLDFAC[human IgG1 Fc omitted]
notes: as for B1
B11: AS47863VH11 HCAb (humanized sdAb, human CD8α hinge, human IgG1 Fc fragment) (Fc fusion)
chain: B10 chain with S74A, A87P
notes: as for B1
B12: AS48463VH4 HCAb (humanized sdAb, human CD8α hinge, human IgG1 Fc fragment) (Fc fusion)
chain: EVQLLESGGGLVQPGGSLRLSCAASGFTFANSDMGWYRQAPGKGCELVSIISSHGGTTYYVDSVKGRFTISRDNSKNTLYLQMNSLRAEDTAVYYCVADPRSNCRGGYCCGYWGQGTLVTVSSTTTPAPRPPTPAPTIASQPLSLRPEACRPAAGGAVHTRGLDFAC[human IgG1 Fc omitted]
notes: as for B1
B13: AS48463VH11 HCAb (humanized sdAb, human CD8α hinge, human IgG1 Fc fragment) (Fc fusion)
chain: B12 chain with S75A, A88P
notes: as for B1

Where a chain is given by its changes, count along the chain named.

In this test the target is T1, recombinant human CD30 extra cellular domain (ECD) protein (human, UniProt P28908 19-379).
T1 construct: Bought from R&D systems; also called rhCD30; human CD30 ECD
T1 sequence: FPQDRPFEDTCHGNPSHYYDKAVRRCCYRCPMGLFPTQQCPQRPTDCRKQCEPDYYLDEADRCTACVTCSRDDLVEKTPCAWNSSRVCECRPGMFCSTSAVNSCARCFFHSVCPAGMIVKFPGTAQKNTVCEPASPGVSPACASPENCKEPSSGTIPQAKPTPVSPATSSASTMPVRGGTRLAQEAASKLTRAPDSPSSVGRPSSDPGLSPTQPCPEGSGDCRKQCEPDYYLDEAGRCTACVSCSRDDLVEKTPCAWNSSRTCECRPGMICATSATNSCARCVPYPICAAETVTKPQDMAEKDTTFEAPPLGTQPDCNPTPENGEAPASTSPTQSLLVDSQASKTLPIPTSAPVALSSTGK
Nature of the test: SPR Biacore, HCAb captured by anti-human Fc pAb, human CD30 concentration series, 1:1 fit. From the text: The camel and humanized sdAb sequences were fused with human CD8α hinge (SEQ ID NO: 62) and human IgG1 Fc fragment (SEQ ID NO:217), making the humanized HCAb sequences. The DNAs encoding these HCAbs were synthesized and inserted into pTT5 vector. HCAb expression plasmids were used to transfect HEK293 cells. Crude HCAb proteins secreted to the medium were subjected to SPR affinity measurement. Briefly, capturing antibody anti-human Fc pAb (GE healthcare) was immobilized on a Biacore™ CMS chip to approximately 6,000 RU using EDC-activated amine coupling chemistry. HCAbs of interest were captured for 300 seconds onto the sensorchip surface. Human CD30 (R&D systems, Cat. #6126-CD) flowed over the sensorchip surface at a series of increasing concentrations. Association and dissociation were monitored. Captured antibody and antigen were removed between cycles using 10 mM Glycine-HCl, pH 2.0 buffer in order to ensure a fresh binding surface for the next round. The resulting sensorgram was fit globally using a 1:1 binding model in order to calculate on- and off-rates (kₐ and kd, respectively), as well as the binding affinities (KD).
The binding affinities of some humanized HCAbs were compared with their chimeric counterparts. Most of the humanized HCAbs retained their binding affinities (Table 7).
(In SPR one partner is held on a chip, and binding of the other changes the refractive index at the surface.)
In the case of B1, the Kd stood at 270 nM, the koff was 0.02 s⁻¹ and the kon stood at 75000 M⁻¹ s⁻¹.

For the molecule B2, the Kd stood at 2.8 nM, the koff was 0.00044 s⁻¹ and the kon was 160000 M⁻¹ s⁻¹.

Turning to B3, the Kd was 120 nM, the koff was found to be 0.0037 s⁻¹ and the kon turned out to be 32000 M⁻¹ s⁻¹.

Turning to B4, the Kd is 210 nM, the koff was found to be 0.049 s⁻¹ and the kon was 230000 M⁻¹ s⁻¹.

On to B5, for which the Kd was 200 nM, the koff was found to be 0.03 s⁻¹ and the kon is 150000 M⁻¹ s⁻¹.

As to B6, the Kd is 78 nM, the koff worked out at 0.019 s⁻¹ and the kon was 240000 M⁻¹ s⁻¹.

With B7, the Kd was 120 nM, the koff came out at 0.0027 s⁻¹ and the kon is 22000 M⁻¹ s⁻¹.

Consider B8, for which the Kd is 260 nM, the koff turned out to be 0.0076 s⁻¹ and the kon turned out to be 29000 M⁻¹ s⁻¹.

Consider B9, for which the Kd is 250 nM, the koff turned out to be 0.0068 s⁻¹ and the kon is 27000 M⁻¹ s⁻¹.

Take B10: the Kd was 450 nM, the koff came out at 0.02 s⁻¹ and the on-rate constant (kon) amounted to 44000 M⁻¹ s⁻¹.

Turning to B11, the Kd is 460 nM, the koff amounted to 0.024 s⁻¹ and the kon stood at 52000 M⁻¹ s⁻¹.

On to B12, for which the Kd turned out to be 480 nM, the koff came to 0.049 s⁻¹ and the kon is 100000 M⁻¹ s⁻¹.

For the molecule B13, the Kd worked out at 510 nM, the koff was 0.042 s⁻¹ and the kon amounted to 82000 M⁻¹ s⁻¹.
